Assay results taken from PubChem BioAssay AID686978 (National Center for Advancing Translational Sciences (NCATS), 2013).
In all, about 420,000 compounds went through this assay and about 64,000 (15%) were called active. Inconclusive results, whose numbers are uncertain, are shown with a selection of clear calls. Calls follow the shape of the dose curve; as a rule, active = well fitted inhibition curve with a large enough effect; inconclusive = small, poorly fitted or top-dose-only effect; inactive = flat fitted curve, though single readings scatter. Potencies of inconclusive entries are left out as doubtful fits. The source holds several records for some structures; these can differ, active in one and inactive in another.

Experiment: qHTS for Inhibitors of human tyrosyl-DNA phosphodiesterase 1 (TDP1): qHTS in cells in absence of CPT; also: nearly all actives have a fitted effect of over 55% in size
Details: DT40 Tdp1-/- hTDP1 cells, no CPT, ATP luminescence, 48 h; activity change, negative = growth inhibition: at 46.2 µM (top of the series)
Outline: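 Chicken DT40 Tdp1-/- cells stably complemented with human TDP1 were seeded at 400 cells/well with DMSO in place of 20 nM camptothecin. After compound pinning, cells grew at least 48 hr at 37 °C; viability read by CellTiter-Glo luminescence.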
% is scaled to controls: 0 for no effect and ±100 for the full control effect; potency is read from the fitted curve at half-maximal effect; tags tell the direction and shape of the fitted curve.

| Compound | Potency | activity change, negative = growth inhibition |
| --- | --- | --- |
| CCCCc1ccc(-c2nc(-c3ccncc3)no2)cc1 | inconclusive [inhibitor, single point] | – |
| Cc1ccc(NC(=S)NCCc2c[nH]c3ccccc23)cc1 | active: 23.1 µM | – |
| O=c1[nH]cnc2c1ncn2C1OC(CO)C(O)C1O (stereo not given) | active: 0.82 µM | – |
| CC1(C)CC(=O)c2c(O)cc(OCc3ccc(Br)cc3)cc2O1 | inconclusive [inhibitor, partial curve] | – |
| c1ccc(-c2sc3ccccc3c2-c2ccc(OCCN3CCCCC3)cc2)cc1 | inconclusive [inhibitor, partial curve] | – |
| Cc1ccc(NC(=O)/C(C#N)=C/c2cccs2)c(C)c1 | inactive | – |
| OCCCn1c(CCNc2nc(-c3ccc(Cl)cc3)cs2)nc2cc(C(F)(F)F)ccc21 | inconclusive [inhibitor, single point] | – |
| CCn1c(SCc2ccccc2C)nc(=O)c2c(C(=O)OC)cc(C3CC3)nc21 | active: 14.6 µM | – |
| CCOC(=O)/C(CCC[N+](C)(CC)CC)=N\O | inactive | – |
| Cc1occc1C(=O)N=Nc1c(O)n(C)c2ccccc12 | inconclusive [inhibitor, partial curve] | – |
| Cc1nn2c(-c3ccc(S(=O)(=O)N4CCN(CCO)CC4)o3)nnc2c2ccccc12 | inactive | – |
| Cc1ccccc1-c1cc(C(=O)NCC2CC2)nn1CC1CC(c2cccc([N+](=O)[O-])c2)=NO1 (stereo not given) | active: 16.4 µM | – |
| Cc1ccc2c(c1)c1c(c(=O)n(-c3cccc(Cl)c3)c(=O)n1CC(=O)NCCC1=CCCCC1)n2C | inactive | – |
| Cc1cccc(C)c1OCC(O)Cn1ccnc1C (stereo not given) | – | inconclusive: -36.5% [inhibitor] |
| CC(C)(C)C(=O)Nc1c2c(nn1-c1ccccc1)CSC2 | active: 23.1 µM | – |
| COC(=O)c1c(NC(=O)c2cccnc2)sc(C)c1C | inconclusive [inhibitor, single point] | – |
| O=C1NC[C@@H](CCCCN2C[C@H](Cc3ccc(O)cc3)N(CCc3ccccc3)C(=O)C2=O)N(CC2CCCCC2)C1=O | inactive | – |
| Cc1cccn2c(=O)c3cc(C(=O)NCc4cccnc4)c(=N)n(C(C)C)c3nc12 | inconclusive [inhibitor, partial curve, poor fit] | – |
| CC(C)Oc1ccc(CNC(=O)CCC(=O)N2CC(C)Sc3ccccc32)cc1 (stereo not given) | inconclusive [inhibitor, partial curve] | – |
| CCOC(=O)C1CCN(C(=O)c2ccc(SC)cc2OC)CC1 | inconclusive [inhibitor, single point] | – |
| CC(=O)c1c(C)[nH]c(C(=O)OCC(=O)NCCCc2ccccc2)c1C | inconclusive [inhibitor, single point] | – |
| COc1cccc(-c2nc(NCc3cccnc3)c3ccccc3n2)c1O | inactive | – |
| COC(=O)c1sccc1-c1ccc(C(=O)Nc2cccc(Cl)c2)o1 | active: 23.1 µM | – |
| Cc1cccc(NC(=S)N(Cc2cccc(Br)c2)CC2CCC(C(=O)O)CC2)c1 (stereo not given) | inconclusive [inhibitor, partial curve, poor fit] | – |

| Compound | Potency | activity change, negative = growth inhibition |
| --- | --- | --- |
| COc1ccc(-c2nc(Cn3c(SCc4cccc(F)c4)nc4ccncc43)c(C)o2)cc1OC | inconclusive [inhibitor, single point] | – |
| O=c1cc(CSc2ncn[nH]2)[nH]c2ccc(F)cc12 | inconclusive [inhibitor, single point] | – |
| C/C(=N/Nc1ccc(F)cc1)c1ccc(Cl)s1 | inactive | – |
| O=C(COc1ccc(C(=O)NCCN2CCOCC2)cc1)Nc1cccc(C(F)(F)F)c1 | inconclusive [inhibitor, single point] | – |
| CCN(CC)C(=O)[C@H]1CC(CC(=O)NCc2ccc(OC)c(OC)c2)C(=O)N2CCc3c([nH]c4ccccc34)[C@]12C (stereo not given in full) | inconclusive [inhibitor, single point] | – |
| C(=Nc1ccc(/C=C/c2ccnc3ccccc23)cc1)c1cccs1 | active: 12.6 µM | – |
| O=C(Cc1cccc(NC(=O)C2CCCN(C(=O)C3CCCC3)C2)c1)Nc1ccc(C(=O)N2CCCCC2)cc1 (stereo not given) | inconclusive [inhibitor, single point] | – |
| COc1cccc(Nc2ccc(Nc3cccc(OC)c3)nn2)c1 | inconclusive [inhibitor, single point] | – |
| CCCCOc1ccc(C(=O)NNC(=S)NC(=O)CC)cc1 | active: 2.59 µM | – |
| O=C(NNC(=O)c1cc(S(=O)(=O)N2CCOCC2)c(Cl)cc1Cl)c1ccccc1F | inconclusive [inhibitor, single point] | – |
| CCCc1nc2ccc(NC(=O)c3ccco3)cc2c(=O)n1Cc1ccccc1Cl | inconclusive [inhibitor, single point] | – |
| COc1ccccc1CNc1nc(NCc2ccc(C)cc2C)c2sccc2n1 | active: 9.2 µM | – |
| CCN(CC)S(=O)(=O)c1ccc2c(c1)N(CC(=O)N1CCN(c3cccc(Cl)c3)CC1)C(=O)CO2 | inconclusive [inhibitor, single point] | – |
| CCOc1ccccc1N1CCN(C(=O)c2ccc3nc(N)sc3c2)CC1 | inconclusive [inhibitor, single point] | – |
| CN(CC(=O)Nc1c(Cl)cccc1Cl)CC(=O)N(C)C1(C#N)CCCCC1 | inactive | – |
| CN(C)C1(CNC(=O)COc2ccc([N+](=O)[O-])cc2)CCCCC1 | inactive | – |
| COc1ccc(S(=O)(=O)N2CCN(Cc3cccc(OC)c3OC)CC2)cc1 | inactive | – |
| O=C(CN1C(=O)c2ccccc2C1=O)Nc1cccnc1 | inconclusive [inhibitor, single point] | – |
| COc1ccc(N2CCN(C(=O)C3COc4ccccc4O3)CC2)cc1 (stereo not given) | inactive | – |
| COc1cccc(-n2cc(C(=O)Nc3cccc(C(F)(F)F)c3)c3ccccc3c2=O)c1 | inconclusive [inhibitor, single point] | – |
| CCOC(=O)C1=C(C)OC(=CC=Cc2ccccc2)C1=O | inconclusive [inhibitor, single point] | – |
| Cc1c(Cc2ccc3c(c2)OCO3)sc(NC(=O)c2ccc3ccccc3c2)c1C(N)=O | inconclusive [inhibitor, single point] | – |
| O=C(c1cccs1)N(c1ccc(Br)cc1)C1C=CS(=O)(=O)C1 (stereo not given) | inactive | – |
| COc1cc(OC)cc(OC2(C)CCN(Cc3ccc(OC(C)C)cc3)C2)c1 (stereo not given) | active: 23.1 µM | – |

| Compound | Potency | activity change, negative = growth inhibition |
| --- | --- | --- |
| COCCn1c(SCC(=O)Nc2ccc3[nH]c(=O)[nH]c3c2)nc2ccccc21 | inconclusive [inhibitor, single point] | – |
| CC(=O)Nc1cc(-c2nc3cc(Cl)ccc3o2)ccc1C | inactive | – |
| CC1CCN(C(=O)Cn2c(=O)n(CCCCCC(=O)NCc3ccccc3Cl)c(=O)c3sccc32)CC1 | active: 10.3 µM | – |
| Cc1cc([N+](=O)[O-])ccc1NC(=O)CSc1nncn1-c1ccccn1 | inconclusive [inhibitor, partial curve, poor fit] | – |
| Cc1ccc(S(=O)(=O)NNC(=O)c2cccs2)c(C)c1 | inactive | – |
| CCCC(=O)Nc1ccc(-c2csc(N/N=C\c3ccncc3)n2)cc1 | active: 8.2 µM | – |
| CC/C(=N\Nc1ccc([N+](=O)[O-])cc1)c1ccccc1 | inconclusive [inhibitor, single point] | – |
| CCOC(=O)C1CCN(Cc2nc3ccc(Cl)cc3n2CCO)CC1 | inconclusive [inhibitor, partial curve] | – |
| COc1ccc(NC(=O)Nc2ccc3nonc3c2)cc1 | inconclusive [inhibitor, single point] | – |
| O=C(O)c1cc([N+](=O)[O-])cc([N+](=O)[O-])c1N1CCN(c2cccc(C(F)(F)F)c2)CC1 | inactive | – |
| Cc1cccc2c1NC(=O)C2(O)N1CCCC(C)C1 (stereo not given) | inactive | – |
| Cc1c(C(=O)NCCN2C(=O)S/C(=C\c3cccnc3)C2=O)cccc1[N+](=O)[O-] | inconclusive [inhibitor, single point] | – |
| Cc1ccc2nc(NC(=O)C3CCN(S(=O)(=O)c4cccc5nsnc45)CC3)sc2c1 | inconclusive [inhibitor, single point] | – |
| CCN(CC)CCNC(=O)Cn1c(=O)c2cccn2c2ccc(F)cc21 | inactive | – |
| C#CCNC(=O)C1=C[C@@H](c2csc3ccccc23)[C@H](CCCO)[C@@H](OCC)O1 | inactive | – |
| CN1CCN(c2ccc(CNC(=O)C3Cc4c(-c5ccc6c(c5)OCO6)ccnc4O3)cc2)CC1 (stereo not given) | inconclusive [inhibitor, partial curve] | – |
| O=C(Nc1cccc(NC(=O)c2ccc([N+](=O)[O-])o2)c1)c1ccco1 | active: 5.17 µM | – |
| COc1ccc(N2CCN(C(c3ccccc3)c3nnnn3C(C)(C)C)CC2)cc1 (stereo not given) | inconclusive [inhibitor, partial curve] | – |
| CCCCNC(=O)c1cn(-c2ccc(OCC)cc2)c(=O)c2cc(OC)c(OC)cc12 | inconclusive [inhibitor, single point] | – |
| O=C(O)c1ccccc1C(=O)c1ccc2c(c1)N(Cc1ccc(Cl)c(Cl)c1)C(=O)CO2 | inconclusive [inhibitor, single point] | – |
| COCCCNC(=O)C[C@H]1C[C@H](C(=O)N(C(C)C)C(C)C)[C@@]2(C)c3[nH]c4ccc(Cl)cc4c3CCN2C1=O | active: 8.2 µM | – |
| Cc1[nH]n(-c2ccccc2)c(=O)c1C(c1cc(Cl)ccc1O)c1c(C)[nH]n(-c2ccccc2)c1=O | inconclusive [inhibitor, single point] | – |
